Test results taken from the RNAGym collection of RNA variant scans (doi:10.7554/elife.90254).
The source gives no read counts; variants with many changes may rest on few reads.

B1: LINE1-mini (parent)
chain: GGCAGAGCUCAACACAGCGUGGCAAAGUGGCUGUGGCUAGACUGCC

Variants of: B1
Experiment: self-cleavage, relative activity (ratio to wild type); higher = more cleavage; in vitro, sequencing; the parent is a self-cleaving ribozyme

Variant	self-cleavage
C15G G29C G30C	0.01
C8A U9A A14G G30C G40A	0.1
G5U G22C G36C C45U	0.02
G1A C3G C45A	0.87
G1C G33C G35A G44C	0.01
G1A A14C G22C C42U	0.02
G5U A24U G35U	0.12
G5U U9C G17U C42A	0.09
A26U U28C U32C G36A G44C	0
A24G G33U A39C G40A	0.04
G2U G5U G27A G30U	0.01
C3G G21A C45G	1.12
A6C A11C A25C G27C U32A G36C U38A	0
C3A C10U C15A A25C U34G G40C	0.07
G29U A41U C45U	0.3
A24C G30A A39G	0.1
A11G G36C C45A	0.01
G1C G29U A39C A41U	0.07
G1U A6C U9C G27C A41G	0.05
C10A C13U G35U	0.02
G1C G29A C45A	0.31
C3A G5A A12U A16U G21U A24C G40A	0.09
G5U A11C G19A	0.01
A4G A6G C8A C15A	0.4

Variant	self-cleavage
U20G G33U G44U	0.03
A4U G5A G17C C18G G36A	0.08
C8A A26U U32A C45G	0.2
A4G C18A U34G C42U	0.02
G7U C10G U28G G29C A41C	0
G7A G21U U28C	0.05
G1C G7A A12G G19A G30C	0
G1U G40C C42G	0
C10U A11C C45U	0.06
C10G G27A C31A G33C	0.02
G1A G7U U9A U34G A41G	0.17
G1A A12U C13A C18A	0.06
C8U A25C G35C	0.05
U20G G36A A39U C45A	0.01
G17C G33A A39C	0.04
G2C C13A G30A C31U U32A	0.35
C13G A25C G33C C45A C46A	0.02
A12G C15G A24G C31U G33A G35U	0.01
A14U C15G G19A A26G G27A	0.02
U9A A14C C15U C18A A24G	0
C10U A24C G27C G30U G33A	0.03
G1U U32G G33U	0.05
A11C U20G G21A A25C	0.01
A24C C37A C45U	0.13

Variant	self-cleavage
A24U C37U C45G	0.05
C10A G30A U38G	0.15
G17A A26C G33U U34C	0.03
G2C U38G G40U C42A	0.13
G7C C10U C15G U20C C23G G36U C37U	0.01
A4C G7C C10A C18G C31A	0.05
C8G C13G G19A U20G U43G	0.04
C15U A26C U28G U43C	0.04
A26U G29A G35C G36U	0.09
G2A C23G A25U G29A G33A	0.22
G7U G22U C23A A41C C42U C45U	0.31
C3U G5U G27U C42U	0.23
A4G C8U A12U C23G	0.1
G19C C23U A25G C37U C46U	0
G5A C15A G36C	0.03
A4G A16U A26C	0.03
G2U C15A G22A	0
C10A G17A G27C	0.05
A12U G17A G29U G44U	0.05
A6U G7U A12U U28G G33A C45A	0.24
G2A A26U C45A	2.46
A12C U34C G36A	0.03
G7U C8A A16G G33U U43A	0.13
G5A C23G U28G C31G G35C	0.1

Variant	self-cleavage
G1A C8A G27C	0.4
C8G G17C C31A C45A	0
G1C G5A U9A A12G C18G G36C U38A C46A	0
G2C G29U U34G C37A C42U	0.04
C3A A11G C18U G36U	0.02
A6G C8U U38C C45G	0.04
U20A A39U C46A	0.03
G19U U32A A39G	0.02
A6C G19U U20G	0.48
G2A A4C C18G G27A G33A C37G G40C C42A	0.01
G17A A25U G30U U34A G36A G40A A41G	0.02
A14U G22U G35U	0.2
G1A C10A C15U	0.12
U28G C42A C45G	0.04
G2C A12U G30A C45G C46G	0.12
G1C G19C U38C	0.02
A6G C8A U28C G35U	0.03
C3U A25G C42A C45G	0.16
C15U G17C C23G C31G	0.75
G21A A26U U32C	0.08
A4U G19U G33U	0.03
A6G U34G C37U C46A	0
G17A C23A A25C U38G C46U	0.01
G1U C3U U9G C13A U20A G21C A24G A26U U32G	0.06

Variant	self-cleavage
G22U G29A C31U A39U	1.43
U34A U43G C45U	0.33
U20A G22U U28A U38A	0.2
G17U C18A C37A	0.27
U9C C31A A39G G44A	0.01
C8U U38C A39G	0.15
G2A G29C C45G	0.95
G7U A24U C31G U34G G36U	0.1
U20C G22C U32G	0.06
C8G G22U U34C	0.62
G1A G5A C37G C42G G44U	0.03
C8A C10A A24U	0.01
G2U G21A C23G	0.05
G2U G29U G33A	0.05
C3G A16U G40U	0.1
G2U C3A C13U U34G C37A U43C	0.07
A6G G7C A24U U34A	0.01
C8A C15A C37G	0.33
C8G G22A G36U A41G	0.07
G7C C8G A12G C37A	0.1
G1C C3U U43A	0.1
G2C A12C A26C G29U G36U	0.05
C8U G17U G30C G40C	0.08
A25U G29U C31A	0.05

Variant	self-cleavage
G17C A25G G29C G40C	0.03
C3A G5C C15U C23U	0.14
C13A A14C A26C C31U A41C	0
C10A G19U C31G	0
G1C C3A C10G U32C G44U	0.01
G17U A25U A39C	0.02
G1U G27U G30U C37A	0.05
G19A G21A A26G U38C	0.63
G2U A4C C31G A41C	0.05
A4U G7A A11C U32G	0.04
G1A G21U A25G C31U C45A	0.17
U28A C31U U43A	0.03
C15A G36C G44U	0.03
A6G A11U G44C	0
U20G A26G U43A C46U	0.01
G5C G21U C31U C42G	0.08
G1C G29A G40U	0.01
G5C G22A C42U	0.05
A6G C8U C13G C37G	0.01
A12G C31A U38C G44A	0.08
A14C G19A G30A	0.03
C8A A25U A39C A41C U43A	0.04
C8U A26G G27U G44C	0.03
G1U A4U G36C	0.09

Variant	self-cleavage
U9A A12G G19U U28G G33U	0.08
G5A C18A U43C C45U C46G	0.01
A4C A11G G33C C37G G40U	0
G2U G30A U34G U43A G44A	0.03
G5U A6U U20G U34G	0
C3U C23G G30U U43A	0.08
G2C G5C A14G G19U	0.03
C3U C10U G36A C45G C46A	0.12
G5C C15U G22C G35U C42G	0.01
C3A C8U U9G U20A U43A	0.12
C8U G35A U38A	0.09
C18U C23G A26G C42A	0.04
A4C A24C G29C C42G	0.02
C13A U34G A41U	0.29
C8G C18A A26G	0.01
C13U C15A G27U	0.02
G5C A12U C15A C42U	0.02
G1C A26G G29U A39C	0.01
A6G G17C G30U G33U G40A U43A	0.13
C13A G19U G30U U32A C46A	0.04
U20C G22C U28A	0.57
C3U A11U C15U	0.02
C10U G22U C23U G35C C45A	0.01
